Results published in PubChem BioAssay (NCATS).
Inconclusive results, whose numbers are uncertain, are shown with a selection of clear calls. No potency is given beside an inconclusive call; the fits are too rough. Calls of active or inactive are those of the source. Calls follow the shape of the dose curve; as a rule, active = well fitted cell-killing curve with a large enough effect; inconclusive = small, poorly fitted or top-dose-only effect; inactive = no such curve, though single readings can be large or run the other way.

assay: qHTS of pediatric cancer cell lines to identify multiple opportunities for drug repurposing: Primary screen for SJ-GBM2 cells (AID 1347091); conditions: SJ-GBM2 viability, CellTiter-Glo luminescence, 48 h; series mostly up to 46 µM
How it was run: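 Viability measured as metabolically active cells via CellTiter-Glo luminescence following 48 hours of compound exposure, 11-point dilutions in confirmatory testing. 500-1,000 cells/well plated 5 hours before dosing; controls were DMSO and 2.3 µM bortezomib.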
Potency is read from the fitted curve at half-maximal effect; tags tell the direction and shape of the fitted curve.

Compound	Potency
Cc1cc([C@@H](C)Nc2ccccc2C(=O)O)c2nc(N3CCOCC3)cc(=O)n2c1	active: 13.6 µM
C[C@H](NC(=O)C(C#N)=Cc1cccc(Br)n1)c1ccccc1	active: 2.96 µM
C#Cc1cccc(Nc2ncnc3cc(OCCOC)c(OCCO)cc23)c1	active: 5.26 µM
NC(=O)c1noc([C@H](CCCC2CCCCC2)CC(=O)NO)n1	active: 18.7 µM
CNCCC(Oc1ccc(C(F)(F)F)cc1)c1ccccc1 (centres undefined)	inconclusive [cytotoxic, single point]
C[C@@H](c1ncncc1F)[C@](O)(Cn1cncn1)c1ccc(F)cc1F	inactive
CC1(CN2CCC(n3c(=O)[nH]c4ccccc43)CC2)OCc2ccccc2-n2cccc21 (centres undefined)	inconclusive [cytotoxic, single point]
COc1ccc(C=Cc2cc(OC)c(OC)c(OC)c2)cc1NC(=O)[C@H](N)CO	active: 0.001 µM
CC1(C)O[C@@H]2C[C@@H]3[C@H]4C[C@@H](F)C5=CC(=O)C=C[C@]5(C)[C@@]4(F)[C@@H](O)C[C@]3(C)[C@]2(C(=O)CO)O1	inconclusive [cytotoxic, partial curve]
